Measured values: PubChem BioAssay AID485294 (National Center for Advancing Translational Sciences (NCATS), 2010)
Among all 370,000 compounds or so, about 150 (0.041%) were called active. Inconclusive means that the source gave no clear call. Such entries were picked first, then a sample of the others. Calls follow the shape of the dose curve; as a rule, active = well fitted inhibition curve with a large enough effect; inconclusive = small, poorly fitted or top-dose-only effect; inactive = flat fitted curve, though single readings scatter. Potencies of inconclusive entries are left out as doubtful fits.

target: Beta-lactamase (Escherichia coli (strain K12)) (UniProt P00811); assay: qHTS Inhibitors of AmpC Beta-Lactamase (assay with detergent); conditions: AmpC hydrolysis of nitrocefin, absorbance 480 nm, 0.01% Triton; activity change, negative = inhibition: at 114 µM (top of the series); also: nearly all actives have a fitted effect of over 25% in size;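 as to activity change, negative = inhibition: 0% = no-compound wells and -100% = no-enzyme wells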
Procedure, shortened: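 20 mM phosphate pH 7.0 + 0.01% (detergent screen) or 0.0001% Triton X-100; 5.3 nM AmpC reagent; cpd preinc 15 min RT; nitrocefin (800 uM stock) to start; A480 q20 s × 4 min; Activity was normalised to no-enzyme and no-compound control wells.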
Potency is read from the fitted curve at half-maximal effect; tags tell the direction and shape of the fitted curve.

UniProt P00811, sequence (P00811 whole entry, looked up): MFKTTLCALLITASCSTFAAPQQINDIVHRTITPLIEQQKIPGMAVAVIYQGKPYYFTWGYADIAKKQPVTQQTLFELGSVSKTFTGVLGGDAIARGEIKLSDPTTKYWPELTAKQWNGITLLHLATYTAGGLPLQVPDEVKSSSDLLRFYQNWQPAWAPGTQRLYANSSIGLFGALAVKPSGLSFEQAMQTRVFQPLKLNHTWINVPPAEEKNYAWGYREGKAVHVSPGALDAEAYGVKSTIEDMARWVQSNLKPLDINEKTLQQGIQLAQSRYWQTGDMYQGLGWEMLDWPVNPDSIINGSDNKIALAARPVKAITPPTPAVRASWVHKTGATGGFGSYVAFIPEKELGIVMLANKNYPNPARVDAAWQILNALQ

| SMILES | Potency | activity change, negative = inhibition |
| --- | --- | --- |
| COc1ccc(N(C)C(=O)c2onc3c2CCCC3)cc1 | inconclusive [inhibitor, partial curve] |  |
| COc1ccc(C2N=C(c3ccccc3)NO2)cc1OC (stereo unspecified) | inconclusive [inhibitor, full curve, poor fit] |  |
| CCOc1ccc(NC(=O)CN(C)C(=O)c2cc(-c3cccs3)nn2-c2ccccc2)cc1OCC | inconclusive [inhibitor, full curve, poor fit] |  |
| Fc1ccccc1-c1nc(N2CCCCC2)c2ccccc2n1 | inconclusive [inhibitor, full curve, poor fit] |  |
| COc1ccc(CNC(=O)CN(C)Cc2ccc(SC)cc2)cc1 |  | inactive: -10.2% |
| COCCNC(=O)CCCn1c(=O)c2cc(OC)c(OC)cc2n(CC(=O)Nc2ccc(F)cc2)c1=O | inconclusive [inhibitor, single point] |  |
| CCNc1nc(NCC)nc(C(=O)Nc2ccccc2)n1 | inconclusive [inhibitor, full curve, poor fit] |  |
| CC(C)Cc1nnc(NC(=O)c2ccncc2)s1 | inconclusive [inhibitor, full curve, poor fit] |  |
| CN(C(=O)COC(=O)/C=C/c1cn(-c2ccccc2)nc1-c1ccc2c(c1)OCCO2)C1CCS(=O)(=O)C1 (stereo unspecified) |  | inactive: -5.96% |
| COc1ccc(Cc2nnc(N/N=C/c3ccc(Br)cc3)[nH]c2=O)cc1OC |  | inactive: -5.66% |
| Cc1ccc(Cl)cc1NC(=O)Nc1cccs1 |  | inactive: 0.0566% |
| Cc1ccc2cc(CCNC(=O)c3cccc([N+](=O)[O-])c3)c(=O)[nH]c2c1C | inconclusive [inhibitor, full curve, poor fit] |  |
| CC(=O)OC1N=C(c2ccccc2)c2ccccc2NC1=O (stereo unspecified) |  | inactive: 4.62% |
| O=S(=O)(NCCc1csc(-c2cccnc2)n1)c1ccc2c(c1)OCCO2 | inconclusive [inhibitor, full curve, poor fit] |  |
| CCCCOC(=O)c1ccc(NC(=O)c2cc3c(=O)n4cccc(C)c4nc3n2C)cc1 |  | inactive: 0.0697% |
| COc1ccc(-c2[nH]ncc2CN2CCN(Cc3cccs3)CC2)c(F)c1 |  | inactive: -3.23% |
| O=C(Nc1ccc(F)cc1F)c1cc(-c2ccccc2O)no1 |  | inactive: 2.74% |
| COc1ccccc1N1CC(C(=O)OC(C)C(=O)N2CCCc3ccccc32)CC1=O (stereo unspecified) | inconclusive [inhibitor, full curve, poor fit] |  |
| C/C(=N\NC(=O)CCn1nnc2ccccc21)c1cccs1 | inconclusive [inhibitor, single point] |  |
| CCc1noc(C)c1C(=O)N1CCN(S(=O)(=O)c2ccc(C)cc2)CC1 | inconclusive [inhibitor, partial curve, poor fit] |  |
| COc1cc(NC(=O)Cn2nc(C(F)(F)F)c3c2CCCC3)c(OC)cc1Cl |  | inactive: 23% |
| Cn1cnc([N+](=O)[O-])c1Sc1ncn[nH]1 |  | inactive: 2.86% |

| SMILES | Potency | activity change, negative = inhibition |
| --- | --- | --- |
| COC(=O)c1c(NC(=O)c2nn(C)cc2Cl)sc2c1CCCC2 | inconclusive [inhibitor, partial curve, poor fit] |  |
| COCCN(CC(=O)Nc1cccc(C)c1C)C(=O)c1cc(-c2ccncc2)nc2ccccc12 | inconclusive [inhibitor, single point] |  |
| Cc1ccc(-c2noc(CCC(N)=O)n2)cc1 | inconclusive [inhibitor, partial curve, poor fit] |  |
| CCC(=O)Nc1nc2c(s1)COc1ccccc1-2 |  | inactive: 3.53% |
| Cc1ccc(-n2c(N)c(C(=O)Nc3ccccc3F)sc2=S)cc1C | inconclusive [inhibitor, single point] |  |
| COc1cccc(C(=O)OCC(=O)c2ccc(S(=O)(=O)N3CCCCC3)cc2)c1OC | inconclusive [inhibitor, partial curve, poor fit] |  |
| Cc1cc2cc(CN(CCN(C)C)C(=S)NCc3ccco3)c(=O)[nH]c2cc1C |  | inactive: -4.99% |
| O=C(NC1CCCCCC1)C1CCN(C(=O)Cc2ccccc2)CC1 | inconclusive [inhibitor, full curve] |  |
| COc1ccc(N(Cc2cc3ccc(C)cc3[nH]c2=O)C(C)=O)cc1 | inconclusive [inhibitor, partial curve] |  |
| CCOc1cc(N2CCOCC2)c(OCC)cc1NC(=O)COC(=O)CCOc1ccc(C)cc1 | inconclusive [inhibitor, full curve, poor fit] |  |
| COc1ccc(N2CCN(c3nc4ccccn4c(=O)c3C=O)CC2)cc1 | inconclusive [inhibitor, full curve, poor fit] |  |
| CC1=C(C(=O)Nc2ccc(CC(=O)NCc3ccccc3C)cc2)SCCO1 | inconclusive [inhibitor, full curve, poor fit] |  |
| CN(C(=O)COC(=O)c1ccc2c(c1)OCO2)C1CCS(=O)(=O)C1 (stereo unspecified) | inconclusive [inhibitor, partial curve, poor fit] |  |
| Cc1cc2nnc(SC(C)C)n2c2ccccc12 | inconclusive [inhibitor, partial curve, poor fit] |  |
| CCOC(=O)c1ccc2c(c1)n(CCO)c(C)[n+]2CC | inconclusive [inhibitor, full curve, poor fit] |  |
| Cn1cc(S(=O)(=O)N2CCC(Cc3ccccc3)CC2)c(=O)n(C)c1=O | inconclusive [inhibitor, full curve] |  |
| Cc1cc(C(=O)N2CCCC2C(=O)O)c(C)o1 (stereo unspecified) | inconclusive [inhibitor, full curve, poor fit] |  |
| CC(C)CN(C(=O)c1cc(=O)[nH]c2ccccc12)c1c(N)n(Cc2ccccc2)c(=O)[nH]c1=O | inconclusive [inhibitor, full curve, poor fit] |  |
| CCN(CC)C(=O)CSc1nc(-c2cccs2)cc(-c2cccs2)c1C#N |  | inactive: -2.05% |
| COc1cccc(NC(=O)C(=O)N/N=C/c2cc(C)n(-c3ccc(Cl)c(Cl)c3)c2C)c1 | inconclusive [inhibitor, partial curve, poor fit] |  |
| Cc1ccccc1S(=O)(=O)Nc1ncnc2sccc12 | inconclusive [inhibitor, full curve] |  |
| Cc1cc(N2CCC(C(=O)NC3CC3)CC2)nc(-c2ccccc2)n1 | inconclusive [inhibitor, full curve, poor fit] |  |

| SMILES | Potency | activity change, negative = inhibition |
| --- | --- | --- |
| COc1ccc2nc(C)cc(Nc3ccc(C)cc3)c2c1 |  | inactive: -12.8% |
| O=C(c1cc2cc(F)ccc2[nH]1)N1CCc2ccccc21 |  | inactive: -2.14% |
| Cc1ccc2occ(CN3CCN(c4ccccc4)CC3)c(=O)c2c1 | inconclusive [inhibitor, partial curve] |  |
| O=C(/C=C\c1ccc(-c2cccc([N+](=O)[O-])c2)o1)N1CCOCC1 | inconclusive [inhibitor, full curve, poor fit] |  |
| CCCC(=O)OCCNc1cc(Sc2nccn2C)c2nonc2c1[N+](=O)[O-] | inconclusive [inhibitor, single point] |  |
| Cc1ccc(S(=O)(=O)Cn2nnnc2CN(Cc2ccco2)CC2CCCO2)cc1 (stereo unspecified) | inconclusive [inhibitor, full curve, poor fit] |  |
| Cc1ccc2oc(C(=O)N3CCN(CC(=O)NC(C)C)CC3)c(C)c2c1 | inconclusive [inhibitor, full curve, poor fit] |  |
| c1ccc(Cn2nnc3c(N4CCCC4)ncnc32)cc1 | inconclusive [inhibitor, full curve, poor fit] |  |
| CCN(CC(=O)Nc1cc(Cl)ccc1C)C(=O)COc1ccccc1F | inconclusive [inhibitor, partial curve] |  |
| COc1ccccc1C(=O)NC(=O)COC(=O)c1ccc(Br)o1 | inconclusive [inhibitor, full curve] |  |
| CCC[N+]1(CC#CC2(O)CCCCC2)CCOCC1 | inconclusive [inhibitor, partial curve] |  |
| O=C(c1ccco1)N1CCN(C(=O)C2CCCO2)CC1 (stereo unspecified) | inconclusive [inhibitor, partial curve, poor fit] |  |
| O=C(NC1CCSC1=O)c1ccc(Oc2cccc(C(F)(F)F)c2)nc1 (stereo unspecified) | inconclusive [inhibitor, single point] |  |
| CC(=O)Nc1ccc(NC(=O)C(C)Sc2nc3nc(C)cc(C)n3n2)cc1 (stereo unspecified) | inconclusive [inhibitor, full curve, poor fit] |  |
| Cc1ccc(Cn2ncc3c(N4CCN(c5ccc(C)cc5)CC4)ncnc32)cc1 |  | inactive: -7.33% |
| CC(C)CCNC(=O)C(=O)Nc1ccc2c(c1)N(S(=O)(=O)c1cccs1)CCC2 | inconclusive [inhibitor, partial curve, poor fit] |  |
| Cc1nc2nc(SCC(=O)NCCc3ccccc3)nn2c(C)c1Cc1c(F)cccc1Cl | inconclusive [inhibitor, full curve, poor fit] |  |
| O=C1CN=C(c2ccccc2)c2cc(Br)ccc2N1 | inconclusive [inhibitor, full curve, poor fit] |  |
| O=C(CSc1nc2ncc(Br)cc2[nH]1)Nc1ccc2c(c1)OCO2 | inconclusive [inhibitor, full curve, poor fit] |  |
| O=C(CCSc1ccc(Cl)cc1)NC12CC3CC(CC(C3)C1)C2 | inconclusive [inhibitor, single point] |  |
| S=C(Nc1cccc(Cl)c1)N1CCN(Cc2ccccc2)CC1 |  | inactive: 0.482% |
| COc1ccc(C(=O)N(Cc2ccc(C(C)C)cc2)C2CCS(=O)(=O)C2)cc1 (stereo unspecified) |  | inactive: -4.7% |
